In PMC12040169 (PLOS Biology, 2025):
The other results are listed elsewhere or left out.

Each compound was assayed on T1, C. trachomatis L2/434/Bu expressing GFP (CTL2-GFP). Conditions: total inclusion area; 28.5 h, 10 µM; inhibitor.
T1 construct: L2/434/Bu GFP intracellular growth in HeLa cells
Set-up: species or system HeLa; C. trachomatis total inclusion area by high-content imaging, normalised to DMSO
Method in brief: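 Bulk GFP and resorufin signals were read first. Wells were then fixed, stained with Hoechst and imaged to detect GFP inclusions and host nuclei. MICs followed the previously described calculation.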

First: CC(=O)Nc1ccc(S(=O)(=O)Nc2ccc(S(=O)(=O)Nc3cc(C)ccc3C)cc2)cc1 [CBK264745]
Second: O=S(=O)(Nc1ccc(C(O)(C(F)(F)F)C(F)(F)F)cc1)c1cccc2cccnc12 [CBK062092]
The “% of control remaining” value of the first is higher: 117.699 for the first, 86.1885 for the second.

First: COC(=O)c1ccc(Cn2cc(NC(=O)NCCc3cccs3)cn2)o1 [CBK043825]
Second: CCN1CCC[C@@H]1CNc1cc(NS(=O)(=O)c2cccs2)cc2ccoc12 [CBK067904C]
The “% of control remaining” value of the first is higher: 88.6524 for the first, 88.1227 for the second.

Compared with CCCNC(=O)N1CCC(n2c(C)nc3cccnc32)CC1 [CBK282292], O=C(O)C1CCCN(C(=O)NCc2c(Cl)cccc2Cl)C1 (stereo not shown) [CBK161362] is lower in “% of control remaining” value: 92.1778 for the first, 79.3406 for the second.

Going from O=C(CN1CCC(O)(Cn2cnc3ccccc32)CC1)c1ccc(-c2ccccc2)cc1 [CBK286306] to COc1ccc(N2C(=O)c3ccc(C(=O)OCC(=O)c4ccc(-c5ccccc5)cc4)cc3C2=O)cc1 [CBK263532], the “% of control remaining” value falls from 115.264 to 108.814.

First: S=C(NCc1ccc(-n2cccn2)cc1)NCC1CCCO1 (stereo not shown) [CBK267083]
Second: CC(=O)Nc1cccc(C(=O)N2CCN(CC3CCCO3)CC2)c1 (stereo not shown) [CBK305158]
The “% of control remaining” value of the first is higher: 95.1515 for the first, 47.8637 for the second.

First: COc1ccc2[nH]cc(C3CCN(Cc4cc(C)no4)CC3)c2c1 [CBK303996]
Second: COc1ccc2[nH]c3c(c2c1)CN(C(=O)CCC1CCCO1)CC3 (stereo not shown) [CBK281530]
The “% of control remaining” value of the first is lower: 69.493 for the first, 95.7629 for the second.

Compared with Cc1cc(O)nc(SCCCSc2ccccc2)n1 [CBK267415], Cc1cc(C)nc(Nc2n[nH]c(Cc3ccccc3)n2)n1 [CBK267023] is higher in “% of control remaining” value: 98.5244 for the first, 113.221 for the second.

First: O=C(CCSc1ccc([N+](=O)[O-])cc1Cl)Nc1ccc(Br)c2cccnc12 [CBK266407]
Second: COc1ccc([N+](=O)[O-])cc1NC(=O)CSc1nnnn1C [CBK268950]
The “% of control remaining” value of the first is lower: 71.5105 for the first, 116.376 for the second.

First: Cc1cc(C)c2c(C)nn(-c3ccc(C(=O)O)cc3)c2n1 [CBK267480]
Second: Cc1nn(Cc2ccc(F)cc2)c(C)c1NC(=O)c1cnn2c(C(F)(F)F)cc(-c3ccccc3)nc12 [CBK268231]
The “% of control remaining” value of the first is lower: 91.5142 for the first, 96.4832 for the second.

Compared with c1ccc(N2CCN(c3nc4cc5c(cc4s3)OCO5)CC2)cc1 [CBK287495], O=C(Nc1ccccc1Cl)N1CCN(c2ccc(F)cc2)CC1 [CBK117849] is lower in “% of control remaining” value: 97.8553 for the first, 70.3035 for the second.

Compared with O=C(Nc1ccc(Sc2ccc([N+](=O)[O-])cc2)cc1)c1ccc2c(c1)C(=O)N(c1ccccc1-c1ccccc1)C2=O [CBK261340], CC(=O)c1ccc(-c2nc(NC(=O)c3ccccn3)cnc2-c2cccc(OC(F)(F)F)c2)s1 [CBK036929] is higher in “% of control remaining” value: 95.4867 for the first, 111.864 for the second.

First: NC(=O)C[N+]1(CC#CC(O)(c2ccccc2)c2ccccc2)CCCC1 [CBK262703I]
Second: O=C(NCCOc1ccccc1)c1nn(-c2ncccn2)c2ccccc12 [CBK048494]
The “% of control remaining” value of the first is lower: 107.629 for the first, 120.482 for the second.

Compared with CC(C)c1ccc(C(=O)NC2CCN(CC(F)(F)F)C2=O)nc1 (stereo not shown) [CBK304089], CCC(NS(=O)(=O)c1cnc2c(c1)c(C)nn2C)C(O)C(F)(F)F (stereo not shown) [CBK306264] is lower in “% of control remaining” value: 50.2301 for the first, 35.2497 for the second.

Compared with OCCCn1c(-c2ccc(Cl)cc2)cn2c3ccccc3nc12 [CBK262900], O=C(CSc1nnc(SCc2cccc3ccccc23)s1)Nc1ccc(F)c(Cl)c1 [CBK267574] is lower in “% of control remaining” value: 99.9304 for the first, 87.7505 for the second.

Compared with COC(=O)c1c(NC(=O)CC2Nc3ccccc3NC2=O)sc2c1CCC(C(C)(C)C)C2 (stereo not shown) [CBK265614], NC(=O)c1c(NC(=O)COc2ccc3ccccc3c2)sc2c1CCCCC2 [CBK265380] is higher in “% of control remaining” value: 59.9092 for the first, 104.581 for the second.

First: COc1ccc(Oc2nccnc2N2CCN(CC3CCCCC3)CC2)cc1OC [CBK083064T]
Second: CCOC(=O)CN1CCC(Oc2nccnc2OCc2ccc(Cl)c(Cl)c2)CC1 [CBK083113T]
The “% of control remaining” value of the first is higher: 101.123 for the first, 98.6062 for the second.

Going from Brc1ccc(/C=N\c2ccc3c(c2)ncn3CCn2cnc3cc(/N=C/c4ccc(Br)cc4)ccc32)cc1 [CBK262285] to Cc1ccc(Nc2ncc(C(=O)NCCCN3CCN(c4cccc(Cl)c4)CC3)c3ccccc23)cc1Cl [CBK291251], the “% of control remaining” value falls from 105.548 to 25.9041.

Going from CCc1[nH]nc2c1C(C1C=CCCC1)C(C#N)=C(N)O2 (stereo not shown) [CBK270236] to CCN(Cc1nccn1CC)[C@H]1CCO[C@@H](c2ccccc2-c2ccc(OC)cc2)C1 [CBK285852], the “% of control remaining” value rises from 74.6048 to 81.8176.

First: O=C(O)c1cccc(N2C(=O)C3C4C=CC(CO)(O4)C3C2=O)c1 (stereo not shown) [CBK287066]
Second: O=C(COc1ccc(S(=O)(=O)N2CCCC2)cc1Cl)NCc1ccccn1 [CBK268412]
The “% of control remaining” value of the first is higher: 99.0197 for the first, 93.5072 for the second.

Compared with CC(C)(C)OC(=O)CN1C(=O)N[C@@H]2CCCC[C@@H]21 [CBK003423], CC(=O)N1Cc2ccccc2OC2(CCN(C(=O)C3CC3)CC2)C1 [CBK285037] is higher in “% of control remaining” value: 96.9387 for the first, 103.23 for the second.

Compared with CN1C[C@@H](NC(=O)c2ccc(C#N)cc2)C[C@H]1c1nc(-c2ccc(F)cc2)no1 [CBK288865], COc1ccc(CCC(=O)N2CCCC(c3nccnc3-c3cccc(C)c3)C2)cc1 (stereo not shown) [CBK286510] is higher in “% of control remaining” value: 79.2571 for the first, 111.377 for the second.

Compared with O=c1[nH]c2cc(Cl)cc(Cl)c2o1 [CBK015711], O=C(Cc1csc(-c2ccsc2)n1)Nc1nc2c(s1)CCC2 [CBK297935] is lower in “% of control remaining” value: 88.1156 for the first, 84.5879 for the second.

First: CCCCCCn1nc(C(=O)NCC(=O)O)c2ccccc2c1=O [CBK297491]
Second: Cc1nn(C)c(C)c1CN(C(=O)C(C)Oc1ccccc1F)C1CC1 (stereo not shown) [CBK281480]
The “% of control remaining” value of the first is higher: 107.523 for the first, 75.668 for the second.

First: CCC(Sc1ncccc1C(=O)O)C(=O)O (stereo not shown) [CBK263216]
Second: CC(C)(C)c1ccc(S(=O)(=O)N2CCSC2)cc1 [CBK095672]
The “% of control remaining” value of the first is lower: 35.8278 for the first, 90.4471 for the second.

For COc1ccc(CN2CCCN(c3ccnc(OCC4COc5ccccc5O4)n3)CC2)cc1 (stereo not shown) [CBK083234T], the “% of control remaining” value was 76.9791.
